ChEMBL document CHEMBL4888484, “Replenishing the malaria drug discovery pipeline: Screening and hit evaluation of the MMV Hit Generation Library 1 (HGL1) against asexual blood stage Plasmodium falciparum ,using a nano luciferase reporter read-out” (2022)
Screen size: about 4,800 compounds; about 420 (8.8%) showed an effect of 50% or more. Some of the results follow.

Each compound was assayed on Plasmodium falciparum (assay: Confirmatory screen in NF54 nanoGlo assay, in single point, at 2uM, 72h). Settings: timepoint 72 hour.
Format: functional, Erythrocyte

% Inhibition, 3%:
O=C(O)c1cc2ccoc2n1Cc1ccccc1, COc1cc(OC)c(NC(=O)c2cnn3c4c(cnc23)CCCCCC4)cc1Cl, Cc1cc(C)c(S(=O)(=O)N2CCC(C)(C(=O)NCc3ccc4c(c3)OCO4)CC2)cc1C, CC(C)Cn1c(C(F)(F)F)cnc1N

% Inhibition, 1%:
COc1ccc(CNC(=O)Cn2c(=O)n(Cc3cccc(OC)c3)c(=O)c3sccc32)cc1, CCCC1CCC(OC(=O)c2ccc(C(=O)OC3CCC(CCC)CC3)nc2)CC1 (stereo unspecified)

% Inhibition, -3%:
O=C(CCc1nc2ccccc2[nH]1)N1CCN(c2ccccn2)CC1, C[C@@H](CC(=O)Nc1cncnc1-n1cccn1)c1ccccc1, Cc1ncsc1C(=O)Nc1cccc(S(=O)(=O)N2CCC(CO)CC2)c1, COc1cccc(-c2cc3c(N4CCC5(CC4)OCCO5)nccn3n2)c1, COc1ccc(N[C@@H](C)C(=O)NC(=O)NC2CC2)c(OC)c1, O=C(O)C1CC1C(=O)N1CCN(c2ccc(Cl)c(Cl)c2)CC1 (stereo unspecified)

% Inhibition, -7%:
COc1ccc(C(=O)N2CCN(c3cc(N4CCOCC4)nc(C)n3)CC2)cc1, CNc1nc(C)nc(O)c1Br, Cc1ccc(COc2cccc(CNC3CC3)c2)cc1, Clc1cccc(CNc2cc(-c3ccco3)n[nH]2)c1

% Inhibition, -11%:
C[C@H]1CCCCN1CCNC(=O)c1cc2c(s1)N(C)CCCC2

% Inhibition, -1%:
Cc1cc(C(=O)Nc2cc(C)nn2C)nc(N(C)C)n1, Cn1ncc2nnn(-c3ccccc3)c(=O)c21, O=C(NCc1ccc(S(=O)(=O)N2CCCC2)cc1)c1cc[nH]n1, Cc1c(C)n(C[C@@H](O)CNC2CCCC2)c2c(Cl)cccc12, CCCCN(C(=O)c1ccccc1)C(=O)c1ccccc1, CC1(CN2CCOCC2)CCN(CC(=O)N2CCc3sccc3C2)CC1, CC(C)NC(=O)CN1CCC2(CC1)NC(c1ccc(OC(F)(F)F)cc1)=NO2, O=C(CN1C(=O)C[C@H](Cc2ccc(F)cc2)C1=O)N1CCNC1=O

% Inhibition, 0%:
COc1cc(C(C)(C)C)c(OCC(=O)N(c2ccccc2)c2ccccc2)cc1C(C)(C)C, Cc1cc(C)cc(-c2cc3nc(C)cc(N4CCC(C(=O)Nc5ccc(C)c(Cl)c5)CC4)n3n2)c1, COCc1cc(C(=O)N[C@H](c2ccccc2)C2CCOCC2)no1, Cc1cc(C)nc(OC(C(=O)O)C(OCc2ccccc2)(c2ccc(C(F)(F)F)cc2)c2cccc(C(F)(F)F)c2)n1 (stereo unspecified), COc1cc(OC)cc(C(=O)Nc2cnc(N3CCCCC3)c(C)c2)c1, CC(C)n1[nH]c(=O)c2c1NC(=O)C[C@@H]2c1cccc2nccnc12

% Inhibition, -9%:
COc1ccc(COC(=O)c2cccnc2C)cn1, CC(C)Nc1cccc(CNC(=O)N2CCOC[C@@H]2C)c1, CCC(C)C(NC(=O)c1ccccc1NC(=O)c1ccco1)C(=O)N1CCCCCC1 (stereo unspecified)

% Inhibition, 64%:
Cc1c(C)n(CC(O)CNC(C)c2ccccc2)c2c(Cl)cccc12 (stereo unspecified)

% Inhibition, 4%:
CCc1sc(N(C(=O)Cc2ccccc2)c2ccc(C)cc2C)nc1-c1ccc(Cl)cc1, CN(C)c1ccc(-c2nc(C(F)(F)F)cc(C(F)(F)C(F)(F)F)n2)cc1, CC[C@H](N)C(=O)N(CC1CC1C)C(C)C (stereo partly specified)

% Inhibition, -12%:
Cc1ccc(NC(=O)Cn2c(=O)n(Cc3ccco3)c(=O)c3ccccc32)c(C)c1, O=C(Nc1ccc(N2CCOCC2)nc1)c1cccs1, Cc1c(Nc2[nH]cnc3ncnc2-3)c(=O)n(-c2ccccc2)n1C, CCn1nc(C)c(CNc2nnc(C3CCCCC3)o2)c1C

% Inhibition, -8%:
Cc1nscc1C(=O)Nc1cccc(OCCN2CCCC2)c1, O=C(c1cn[nH]c1-c1ccccc1)N1CCCCC1

% Inhibition, -6%:
CCc1ccc(NC(=O)[C@H]2CCCN(c3nc4cccnc4n(Cc4ccccc4)c3=O)C2)cc1, OC[C@H]1CCc2nnc(C(F)F)n2C1

% Inhibition, 2%:
Cc1cccc([C@H]2NCCc3sccc32)n1, CCN1C(=O)CCN(C(=O)c2ccnn2C)CC12CCOCC2, O=C1Nc2ccc(Br)cc2C1=O

% Inhibition, 71%:
Oc1cccc(CN[C@H]2CCCc3occc32)c1Cl

% Inhibition, 5%:
O=C(NC1CCCC1)N1CCN(c2nc3cccnc3n(Cc3ccccc3)c2=O)CC1, CC(C)N1CCN(C(=O)CN2N=C(c3nc(-c4ccccc4)no3)CCC2=O)CC1, O=C(Nc1ccc2c(c1)OCO2)[C@@H](c1cccc(F)c1)N(Cc1ccc(F)cc1)C(=O)Cn1nnc2ccccc21, O=C(O[C@@H](c1ccccc1)N1C(=O)C(C(F)(F)F)(C(F)(F)F)c2ccccc21)C(C(F)(F)F)C(F)(F)F

% Inhibition, -5%:
CCN(CC)c1ccc(C(=O)OCC(=O)NC(C)(C)C)cc1, COc1ccc2nc(C)c(C(=O)N3CC(OCC(F)F)C3)n2n1

% Inhibition, -4%:
N#Cc1c(N2CCCCC2)ncc2c(=O)c3ccccc3[nH]c12, N#CCC(=O)NC1CCC(CC2CCC(NC(=O)CC#N)CC2)CC1 (stereo unspecified), Oc1c(Br)cc(Br)cc1/C=C/c1ccc(CN2CCOCC2)cc1

% Inhibition, 24%:
COc1ccc(C2(NCc3cc(O)cc(Cl)c3)CCOCC2)cc1

% Inhibition, -10%:
CCOC(=O)n1c(=O)[nH]c2ccc(Br)cc21, Cc1ccc(CN2CCN(CC(=O)NC3CCCCC3C)C2=O)cc1 (stereo unspecified)

% Inhibition, -2%:
COc1cccc(-c2cc3c(N4CC=C(c5ccccc5)CC4)nccn3n2)c1, CC1(C)CCCc2sc(NC(=O)N[C@H]3CCOC4(CCC4)C3)nc21, CCn1c(=O)c(N2CCN(C(=O)Nc3cccc(C(F)(F)F)c3)CC2)nc2ccccc21, COc1ccccc1N1CCN(C(=O)c2nnn(-c3ccccc3Cl)c2-c2cccnc2)CC1
